# Experimental data reported in the BET-seq Pho4 binding data (Le et al. 2018).
# This is one part of the list. Values were computed here from the reads of four pooled replicates and scatter widely.
# Biological target: T1, Pho4 (S. cerevisiae) (UniProt P07270)
# T1 sequence: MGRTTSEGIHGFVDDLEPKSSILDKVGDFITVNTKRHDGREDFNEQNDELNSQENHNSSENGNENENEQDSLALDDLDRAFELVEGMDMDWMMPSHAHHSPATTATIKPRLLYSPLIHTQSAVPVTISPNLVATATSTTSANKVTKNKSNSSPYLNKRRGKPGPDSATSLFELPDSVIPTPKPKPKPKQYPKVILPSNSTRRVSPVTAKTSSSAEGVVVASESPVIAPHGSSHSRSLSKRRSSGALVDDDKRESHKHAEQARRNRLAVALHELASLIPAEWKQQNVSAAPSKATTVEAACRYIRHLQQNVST
# Assay: relative binding free energy (BET-seq); higher = weaker binding
# Settings: reference: library average
row,Sequence,relative binding free energy
1,GTAAACACGTGGAGGG,0 kcal/mol
2,TTCTGCACGTGCTGTT,-0.13 kcal/mol
3,TGTCGCACGTGATAGT,0.08 kcal/mol
4,TTAGACACGTGAGGCG,0.13 kcal/mol
5,ATTTGCACGTGTGTTA,0.03 kcal/mol
6,TCTGACACGTGTGTGA,0.05 kcal/mol
7,AGCTACACGTGGGTTG,-0.11 kcal/mol
8,TAGGACACGTGGAGTG,0.09 kcal/mol
9,TGGGCCACGTGAGAGC,0.33 kcal/mol
10,GAAGTCACGTGTGTAA,0.3 kcal/mol
11,CATGGCACGTGGGGAG,-0.17 kcal/mol
12,ACGTTCACGTGGTGTA,0.2 kcal/mol
13,AGTATCACGTGTTTAT,0.22 kcal/mol
14,AGGCCCACGTGGTGGG,-0.14 kcal/mol
15,ACTTACACGTGGGGAT,0.12 kcal/mol
16,ATCGGCACGTGAGGTA,0 kcal/mol
17,GGGGCCACGTGTCGTT,-0.04 kcal/mol
18,AAATTCACGTGAAGTA,0.4 kcal/mol
19,AGAAGCACGTGATTGT,0.15 kcal/mol
20,TTGTTCACGTGGGGCA,0.07 kcal/mol
21,ACGGTCACGTGGGGTC,-0.16 kcal/mol
22,GGTGACACGTGTTGTG,-0.03 kcal/mol
23,GGAATCACGTGATTAG,0.29 kcal/mol

row,Sequence,relative binding free energy
1,GACTTCACGTGAAGGT,0.44 kcal/mol
2,GTATCCACGTGTAGGG,0.01 kcal/mol
3,ATTAACACGTGAAGGG,0.17 kcal/mol
4,GGCGGCACGTGTGTGC,-0.13 kcal/mol
5,TGGGTCACGTGCATTT,0.18 kcal/mol
6,GAGTTCACGTGGGTGA,0.27 kcal/mol
7,TGTATCACGTGTGGCT,0.08 kcal/mol
8,TGGGTCACGTGGAAAA,0.28 kcal/mol
9,ATTGTCACGTGGCGAA,-0.01 kcal/mol
10,TTTTACACGTGCATAT,0.07 kcal/mol
11,TTCAGCACGTGTAAGA,0.21 kcal/mol
12,GTAGGCACGTGTCGCG,-0.14 kcal/mol
13,GATGTCACGTGCGGGA,0.25 kcal/mol
14,CTTATCACGTGGATGT,0.02 kcal/mol
15,CTTTACACGTGTGGGT,0.2 kcal/mol
16,ACTTTCACGTGGTATT,0.2 kcal/mol
17,ATAGGCACGTGCGTAG,-0.14 kcal/mol
18,ATGTTCACGTGGCTTG,0.22 kcal/mol
19,CGATGCACGTGTTTTT,-0.02 kcal/mol
20,GCGTACACGTGGGTTA,-0.01 kcal/mol
21,GATTACACGTGTTATA,0.26 kcal/mol
22,TGTTGCACGTGCAGGT,-0.07 kcal/mol
23,TTGGGCACGTGGCGTT,-0.09 kcal/mol

row,Sequence,relative binding free energy
1,GTATTCACGTGGGACG,0.18 kcal/mol
2,TTAGGCACGTGCAGGG,-0.16 kcal/mol
3,GGTAACACGTGGGGGG,-0.05 kcal/mol
4,AGCTACACGTGGGTGT,-0.12 kcal/mol
5,TATTGCACGTGGACGT,-0.1 kcal/mol
6,TACGTCACGTGTTGCG,0.06 kcal/mol
7,ATCTTCACGTGTTTAG,0.24 kcal/mol
8,TTGTTCACGTGTCACG,0.27 kcal/mol
9,GGGCTCACGTGGATAG,0.31 kcal/mol
10,ATTGTCACGTGGCGAG,0.06 kcal/mol
11,GGCTTCACGTGGTATG,0.36 kcal/mol
12,TTGGTCACGTGCAAAG,0.11 kcal/mol
13,ATCGGCACGTGTTGGG,-0.06 kcal/mol
14,GTTAGCACGTGGTTGC,-0.21 kcal/mol
15,TAGCTCACGTGAGTGT,0.36 kcal/mol
16,ATATGCACGTGTGGTT,0.1 kcal/mol
17,AGGGCCACGTGTGGGG,-0.14 kcal/mol
18,TATGTCACGTGCGCTT,-0.1 kcal/mol
19,AGAGGCACGTGATGAT,-0.03 kcal/mol
20,TGGGCCACGTGGTGGC,-0.02 kcal/mol
21,GAGGGCACGTGGGCTC,-0.18 kcal/mol
22,AGTATCACGTGGGCCG,-0.02 kcal/mol
23,GACAGCACGTGTTGTT,-0.02 kcal/mol

row,Sequence,relative binding free energy
1,TTACTCACGTGTAATT,0.18 kcal/mol
2,ATCGTCACGTGTCGGT,0.1 kcal/mol
3,GTGCTCACGTGGGCAT,0.13 kcal/mol
4,CTTTACACGTGTAGAT,0.37 kcal/mol
5,AGTAACACGTGTGCGT,-0.06 kcal/mol
6,GAAGGCACGTGAAAGG,0.35 kcal/mol
7,AGATGCACGTGTTTGT,-0.07 kcal/mol
8,GTGTGCACGTGCTGCA,0.02 kcal/mol
9,ATTAACACGTGAGTCT,0.23 kcal/mol
10,TATCACACGTGTATTT,0.17 kcal/mol
11,TGCTTCACGTGTTGTG,0.25 kcal/mol
12,TCGTACACGTGTCTTG,0.15 kcal/mol
13,GTTAGCACGTGTCGGA,0.18 kcal/mol
14,GGGTGCACGTGCAGCG,-0.14 kcal/mol
15,AGGTCCACGTGGGAGT,-0.09 kcal/mol
16,GTATTCACGTGGCGGA,0.22 kcal/mol
17,CAGTGCACGTGTGTAG,-0.19 kcal/mol
18,ATGTACACGTGATGGG,0.15 kcal/mol
19,AAGTGCACGTGGGTTG,-0.25 kcal/mol
20,CGTAACACGTGTTGGA,0.09 kcal/mol
21,ATGGACACGTGGTCGG,-0.1 kcal/mol
22,TAGTTCACGTGTGAAC,0.38 kcal/mol
23,TCAGTCACGTGGTGGT,0.1 kcal/mol

row,Sequence,relative binding free energy
1,AGTAGCACGTGGAGTT,-0.01 kcal/mol
2,CGTTACACGTGTTAGT,0.14 kcal/mol
3,GGTTGCACGTGCTAGT,-0.01 kcal/mol
4,GGGCGCACGTGGAGGG,-0.11 kcal/mol
5,GTGCGCACGTGGCGTG,-0.16 kcal/mol
6,CTCGGCACGTGTTGGG,-0.05 kcal/mol
7,TTACGCACGTGTGTTT,-0.14 kcal/mol
8,TTAAGCACGTGTGGTG,-0.13 kcal/mol
9,TTTTTCACGTGTGGGT,0.38 kcal/mol
10,TTCTACACGTGTGTTG,-0.03 kcal/mol
11,ATTTACACGTGGGTGG,0.01 kcal/mol
12,GCGTTCACGTGGGGTA,0.18 kcal/mol
13,GCGGTCACGTGTATGT,0.08 kcal/mol
14,TAATGCACGTGGGTAG,-0.2 kcal/mol
15,TGGGTCACGTGGTGTG,0.12 kcal/mol
16,TAGGCCACGTGTTTAG,-0.11 kcal/mol
17,GTGCGCACGTGTTTGA,-0.22 kcal/mol
18,GTGGACACGTGTTTCG,0 kcal/mol
19,ACGGGCACGTGGTGGT,-0.09 kcal/mol
20,GGTGACACGTGAGCTG,0.3 kcal/mol
21,CGTGACACGTGTGCTG,0.07 kcal/mol
22,GTGGCCACGTGGGCGT,-0.24 kcal/mol
23,GTTATCACGTGTGTTG,0.15 kcal/mol
